Screen size: about 340,000 compounds; about 6,900 (2%) were called active. Cut-off read from the data, not from the text of the source: active = inhibition above about 30%; inactive = below that, where a call was filed. The entries are a selection whose mix differs from that of the whole data set. The source gives no active or inactive call for entries shown without one.

The target in the test is D(2) dopamine receptor (Homo sapiens) (UniProt P14416). The test can be described thus: HTS Assay for Allosteric Antagonists of the Human D2 Dopamine Receptor: Primary Screen for Antagonists. Note: 0% is about no effect. The settings on record: HEK293 TREx D2 cells, calcium flux, dopamine EC80; at 10 µM; stronger effect = higher value. An outline of the steps: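 Measurement of antagonist activity uses fluorescent calcium dye in inducible HEK293 T-REx D2 cells: 10 s baseline, compound addition with 180 s read, EC80 dopamine addition with a further 180 s read.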
UniProt P14416, sequence (P14416 whole entry, looked up): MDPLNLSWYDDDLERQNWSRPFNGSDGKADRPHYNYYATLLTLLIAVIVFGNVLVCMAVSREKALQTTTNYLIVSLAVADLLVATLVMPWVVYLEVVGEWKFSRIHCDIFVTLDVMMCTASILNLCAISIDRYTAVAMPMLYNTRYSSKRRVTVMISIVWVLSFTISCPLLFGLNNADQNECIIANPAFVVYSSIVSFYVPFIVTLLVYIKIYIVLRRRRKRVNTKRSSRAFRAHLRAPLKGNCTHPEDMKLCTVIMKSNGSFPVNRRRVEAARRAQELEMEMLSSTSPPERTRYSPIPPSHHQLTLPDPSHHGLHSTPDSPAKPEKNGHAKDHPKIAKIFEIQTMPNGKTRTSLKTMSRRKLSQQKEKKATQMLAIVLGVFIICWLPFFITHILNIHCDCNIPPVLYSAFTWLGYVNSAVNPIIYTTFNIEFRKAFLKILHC
For orientation: A change in cytosolic calcium serves as a functional read-out for many receptors and channels.
Turning to `COc1ccc(CNC(=O)Nc2cccc(C(F)(F)F)c2)cc1OC`, the inhibition (usually the change of the read-out against control, counted positive when it falls) was active: 45.8%.

`Cc1ccc(-c2nc3c(c(SCC(=O)N(C)c4ccccc4)n2)Cc2c(CO)cnc(C)c2O3)cc1`: the inhibition is -7.64%.

Consider `CCN(CC)c1cc(C)c2cc(NC(=O)c3ccccc3Cl)ccc2n1`, for which the inhibition is -19%.

With `CCOC(=O)c1ccc(NC(=O)CSc2ccc(-c3ccccn3)nn2)cc1`, the inhibition was 11.5%.

As for `Cc1ccc(C(C)C)c(OCCCN2CCc3ccccc3C2)c1`, the inhibition was active: 30.5%.

With `COc1ccc(S(=O)(=O)NCCc2nnc3ccc(SCC(=O)Nc4cc(C)cc(C)c4)nn23)cc1`, the inhibition was determined as 6.31%.

For `CCOc1ccc(NC(=O)C2CCN(c3nc4ccccc4[nH]3)CC2)cc1`, the inhibition is 17.7%.

Consider `COC(=O)c1c(SC)nc2ccccc2c1OCc1ccccc1Cl`, for which the inhibition was -7.63%.

Consider `CCSc1ccc(C(=O)Nc2ccc(-c3nc4ccc(C)cc4s3)cc2)cc1`, for which the inhibition was -25.5%.

Turning to `COc1ccc2c(C)c(CCC(=O)NCc3ccc(C)cc3)c(=O)oc2c1`, the inhibition was 10.8%.

Take `CCC(CC)C(=O)OCc1cc(=O)n2nc(C3CCCCC3)sc2n1`: the inhibition stood at 2.73%.

Consider `Cc1ccc(-c2c(C(=O)N3CCN(c4cccc(C)c4)C(C)C3)oc(=O)c3ccccc23)cc1` (configuration not stated), for which the inhibition came out at 6.65%.

Take `CCOc1ccc(CN2CCc3nc(N4CCN(c5ncccn5)CC4)ncc3C2)cc1OC`: the inhibition is -6.34%.

Turning to `CCOC(=O)c1c(C)[nH]c(C)c1S(=O)(=O)N(C)CC(=O)N1CCN(c2ccc(Cl)cc2)CC1`, the inhibition was determined as 3.97%.

With `COC(=O)C1=C(C)N=C2SCCC(=O)N2C1c1ccc(OCc2ccccc2)c(OC)c1` (configuration not stated), the inhibition was -0.278%.

With `COCCN1Cc2cccc(C(=O)Nc3ccc(C)cc3)c2C1=O`, the inhibition is active: 40.7%.

Consider `CCOc1ccc(N2C(=O)CS(=O)(=O)C23C(=O)N(Cc2cccc(Cl)c2)c2ccccc23)cc1` (configuration not stated), for which the inhibition is -1.29%.

Consider `CC(C)(C)OC(=O)N1CCC(c2c(C(=O)NCCc3ccsc3)cnn2-c2ccccc2Cl)CC1`, for which the inhibition was -0.923%.

As to `CC1=C(C(=O)Nc2cc(Cl)ccc2C)C2(CCCCC2)OC1=O`, the inhibition worked out at 0.544%.

Consider `O=C(NCCc1csc(-c2ccc(F)cc2)n1)c1ccco1`, for which the inhibition worked out at 9.89%.

`Cc1cc(C)n2nc(CNC(=O)c3ccccc3Cl)nc2n1`: the inhibition is -7.55%.

`Cc1cc(C)cc(NC(=O)CCc2nnc3n(C)c(=O)c4sccc4n23)c1`: the inhibition was -4.44%.

`OC(CSc1ccc(F)cc1)CN1CCN(c2ccccc2)CC1` (configuration not stated): the inhibition was active: 75.8%.

Turning to `CCC(C(=O)Nc1ccc(C(C)=O)cc1)n1cnc2nc3c(cc2c1=O)CCCC3` (configuration not stated), the inhibition turned out to be 4.49%.

As to `Cn1c(CN2CCCCC2)nc2cc(NS(=O)(=O)c3ccc(Cl)cc3)ccc21`, the inhibition is active: 72.6%.

In the case of `CCOc1ccccc1NS(=O)(=O)c1ccc2c(c1)CC(C)N2C(=O)C1CC1` (configuration not stated), the inhibition came out at 1.94%.

Regarding `COc1cc(C(CC(=O)NCc2ccccc2)N2Cc3ccccc3C2=O)cc(OC)c1OC` (configuration not stated), the inhibition turned out to be 10.1%.

(Values after PubChem BioAssay AID485344 (National Center for Advancing Translational Sciences (NCATS), 2010).)
